The record followed here is publication PMC9911399, “Two distinct binding modes provide the RNA-binding protein RbFox with extraordinary sequence specificity”.

Substitutions are numbered along the chain they refer to; changes in the protein carry UniProt numbers. Some of the results follow.

First the molecules themselves.
T1: RBFOX1 RRM RbFoxmut (Fox-RRM*) (Homo sapiens, UniProt Q9NWB1 109-208, R118D;E147R;N151S;E152T)
T1 sequence: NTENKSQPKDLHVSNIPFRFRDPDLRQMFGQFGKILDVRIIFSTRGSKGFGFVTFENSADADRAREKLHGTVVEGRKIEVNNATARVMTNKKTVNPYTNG

B1: GUUAAUA (DNA:RNA)
RNA: GGGAGACCGGAAUUCAGAUUGUCCGUUAAUAUUAAAUCCCGUCGUAGCCACCA
DNA 1: CAATCTGAATTCCGGTCTCCC
DNA 2: TGGTGGCTACGACGGGATT
B2: AUACCCG (DNA:RNA)
RNA: B1 RNA with G25A, U27A, A28C, A29C, U30C, A31G
DNA 1: CAATCTGAATTCCGGTCTCCC
DNA 2: TGGTGGCTACGACGGGATT
B3: GUGCGCU (DNA:RNA)
RNA: B1 RNA with U27G, A28C, A29G, U30C, A31U
DNA 1: CAATCTGAATTCCGGTCTCCC
DNA 2: TGGTGGCTACGACGGGATT
B4: ACCACGG (DNA:RNA)
RNA: B1 RNA with G25A, U26C, U27C, A29C, U30G, A31G
DNA 1: CAATCTGAATTCCGGTCTCCC
DNA 2: TGGTGGCTACGACGGGATT
B5: AGUGAUG (DNA:RNA)
RNA: B1 RNA with G25A, U26G, A28G, A31G
DNA 1: CAATCTGAATTCCGGTCTCCC
DNA 2: TGGTGGCTACGACGGGATT
B6: GGGAAAU (DNA:RNA)
RNA: B1 RNA with U26G, U27G, U30A, A31U
DNA 1: CAATCTGAATTCCGGTCTCCC
DNA 2: TGGTGGCTACGACGGGATT
B7: GGCAGUG (DNA:RNA)
RNA: B1 RNA with U26G, U27C, A29G, A31G
DNA 1: CAATCTGAATTCCGGTCTCCC
DNA 2: TGGTGGCTACGACGGGATT
B8: GUCUCCA (DNA:RNA)
RNA: B1 RNA with U27C, A28U, A29C, U30C
DNA 1: CAATCTGAATTCCGGTCTCCC
DNA 2: TGGTGGCTACGACGGGATT
B9: ACUCAGA (DNA:RNA)
RNA: B1 RNA with G25A, U26C, A28C, U30G
DNA 1: CAATCTGAATTCCGGTCTCCC
DNA 2: TGGTGGCTACGACGGGATT
B10: UUGUAGU (DNA:RNA)
RNA: B1 RNA with G25U, U27G, A28U, U30G, A31U
DNA 1: CAATCTGAATTCCGGTCTCCC
DNA 2: TGGTGGCTACGACGGGATT
B11: ACGCAAA (DNA:RNA)
RNA: B1 RNA with G25A, U26C, U27G, A28C, U30A
DNA 1: CAATCTGAATTCCGGTCTCCC
DNA 2: TGGTGGCTACGACGGGATT
B12: CACAAAG (DNA:RNA)
RNA: B1 RNA with G25C, U26A, U27C, U30A, A31G
DNA 1: CAATCTGAATTCCGGTCTCCC
DNA 2: TGGTGGCTACGACGGGATT
B13: CGUCGAC (DNA:RNA)
RNA: B1 RNA with G25C, U26G, A28C, A29G, U30A, A31C
DNA 1: CAATCTGAATTCCGGTCTCCC
DNA 2: TGGTGGCTACGACGGGATT
B14: AUGAUCC (DNA:RNA)
RNA: B1 RNA with G25A, U27G, A29U, U30C, A31C
DNA 1: CAATCTGAATTCCGGTCTCCC
DNA 2: TGGTGGCTACGACGGGATT
B15: CAGGGUU (DNA:RNA)
RNA: B1 RNA with G25C, U26A, U27G, A28G, A29G, A31U
DNA 1: CAATCTGAATTCCGGTCTCCC
DNA 2: TGGTGGCTACGACGGGATT
B16: UACAAAA (DNA:RNA)
RNA: B1 RNA with G25U, U26A, U27C, U30A
DNA 1: CAATCTGAATTCCGGTCTCCC
DNA 2: TGGTGGCTACGACGGGATT
B17: AAUUGUG (DNA:RNA)
RNA: B1 RNA with G25A, U26A, A28U, A29G, A31G
DNA 1: CAATCTGAATTCCGGTCTCCC
DNA 2: TGGTGGCTACGACGGGATT
B18: UCGCUAC (DNA:RNA)
RNA: GGGAGACCGGAAUUCAGAUUGUCCUCGCUACUUAAAUCCCGUCGUAGCCACCA
DNA 1: CAATCTGAATTCCGGTCTCCC
DNA 2: TGGTGGCTACGACGGGATT
B19: UAGCAAA (DNA:RNA)
RNA: B18 RNA with C26A, U29A, C31A
DNA 1: CAATCTGAATTCCGGTCTCCC
DNA 2: TGGTGGCTACGACGGGATT
B20: GCAGAGG (DNA:RNA)
RNA: B1 RNA with U26C, U27A, A28G, U30G, A31G
DNA 1: CAATCTGAATTCCGGTCTCCC
DNA 2: TGGTGGCTACGACGGGATT
B21: UGGUGUA (DNA:RNA)
RNA: B1 RNA with G25U, U26G, U27G, A28U, A29G
DNA 1: CAATCTGAATTCCGGTCTCCC
DNA 2: TGGTGGCTACGACGGGATT
B22: GCUAACG (DNA:RNA)
RNA: B1 RNA with U26C, U30C, A31G
DNA 1: CAATCTGAATTCCGGTCTCCC
DNA 2: TGGTGGCTACGACGGGATT
B23: UGCCACA (DNA:RNA)
RNA: B1 RNA with G25U, U26G, U27C, A28C, U30C
DNA 1: CAATCTGAATTCCGGTCTCCC
DNA 2: TGGTGGCTACGACGGGATT
B24: UGAUGGG (DNA:RNA)
RNA: B18 RNA with C26G, G27A, C28U, U29G, A30G, C31G
DNA 1: CAATCTGAATTCCGGTCTCCC
DNA 2: TGGTGGCTACGACGGGATT
B25: CUGGAGA (DNA:RNA)
RNA: B1 RNA with G25C, U27G, A28G, U30G
DNA 1: CAATCTGAATTCCGGTCTCCC
DNA 2: TGGTGGCTACGACGGGATT
B26: CCCCCUA (DNA:RNA)
RNA: B1 RNA with G25C, U26C, U27C, A28C, A29C
DNA 1: CAATCTGAATTCCGGTCTCCC
DNA 2: TGGTGGCTACGACGGGATT
B27: GGCCCAA (DNA:RNA)
RNA: B1 RNA with U26G, U27C, A28C, A29C, U30A
DNA 1: CAATCTGAATTCCGGTCTCCC
DNA 2: TGGTGGCTACGACGGGATT
B28: GAGUAGU (DNA:RNA)
RNA: B1 RNA with U26A, U27G, A28U, U30G, A31U
DNA 1: CAATCTGAATTCCGGTCTCCC
DNA 2: TGGTGGCTACGACGGGATT
B29: GCUAAGU (DNA:RNA)
RNA: B1 RNA with U26C, U30G, A31U
DNA 1: CAATCTGAATTCCGGTCTCCC
DNA 2: TGGTGGCTACGACGGGATT
B30: UGCACAG (DNA:RNA)
RNA: B18 RNA with C26G, G27C, C28A, U29C, C31G
DNA 1: CAATCTGAATTCCGGTCTCCC
DNA 2: TGGTGGCTACGACGGGATT
B31: CUAUAUA (DNA:RNA)
RNA: B1 RNA with G25C, U27A, A28U
DNA 1: CAATCTGAATTCCGGTCTCCC
DNA 2: TGGTGGCTACGACGGGATT

This experiment has as its target T1, RBFOX1 RRM RbFoxmut (Fox-RRM*). Briefly: EMSA; HiTS-Eq, 1 nM pool, 10 min; buffer printed only for the single-RNA assays: 10 mM Tris pH 7.5, 150 mM NaCl, 3.4 mM EDTA, 0.001% NP-40, 30 C. The conditions noted are these: tags: His6 N-terminal (pET28a); label: 5' 32P. The essentials: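 Purified wild-type or mutant RbFox RRM at increasing concentrations was equilibrated with 1 nM of 5′-radiolabelled RNA carrying 7 randomized nucleotides for 10 min in 50 µL. Unbound RNA was separated by 8% native PAGE and sequenced. Relative association constants came from read-count changes of each RNA species compared with the control reaction, normalised to the cognate motif.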
On the technique in general: Mobility shift assays separate free from complexed probe on a gel.
With B1, the binding signal is 0.124 KA relative to UGCAUGU.
Take B2: the binding signal was 0.0997 KA relative to UGCAUGU.
As for B3, the figure is 0.12 KA relative to UGCAUGU.
As for B4, the figure is 0.0844 KA relative to UGCAUGU; as for B5, 0.237 KA relative to UGCAUGU; as for B6, 0.0668 KA relative to UGCAUGU.
With B7 the figure was 0.14 KA relative to UGCAUGU; with B8, 0.104 KA relative to UGCAUGU.
Take B9: the binding signal is 0.12 KA relative to UGCAUGU.
Turning to B10, the binding signal is 0.184 KA relative to UGCAUGU.
With B11 the figure was 0.0919 KA relative to UGCAUGU; with B12, 0.117 KA relative to UGCAUGU.
For B13, the binding signal was 0.104 KA relative to UGCAUGU.
With B14 the figure was 0.0807 KA relative to UGCAUGU; with B15, 0.106 KA relative to UGCAUGU; with B16, 0.0766 KA relative to UGCAUGU.
With B17 the figure was 0.159 KA relative to UGCAUGU; with B18, 0.112 KA relative to UGCAUGU.
As for B19, the figure is 0.0898 KA relative to UGCAUGU.
Regarding B20, the binding signal was 0.0828 KA relative to UGCAUGU.
As for B21, the figure is 0.268 KA relative to UGCAUGU.
With B22 the figure was 0.12 KA relative to UGCAUGU; with B23, 0.0833 KA relative to UGCAUGU; with B24, 0.0449 KA relative to UGCAUGU.
As for B25, the figure is 0.0675 KA relative to UGCAUGU.
Turning to B26, the binding signal was 0.032 KA relative to UGCAUGU.
As for B27, the figure is 0.0682 KA relative to UGCAUGU; as for B28, 0.157 KA relative to UGCAUGU.
B29: the binding signal is 0.134 KA relative to UGCAUGU.
With B30 the figure was 0.0603 KA relative to UGCAUGU; with B31, 0.118 KA relative to UGCAUGU.
